# ChEMBL document CHEMBL4888484, “Replenishing the malaria drug discovery pipeline: Screening and hit evaluation of the MMV Hit Generation Library 1 (HGL1) against asexual blood stage Plasmodium falciparum ,using a nano luciferase reporter read-out” (2022)
# Screen size: about 150,000 compounds; about 540 (0.36%) showed an effect of 50% or more. The list shows a part of the results.
# Test system: Plasmodium falciparum
# Experiment: Primary screen in NF54 nanoGlo assay, in single point, at 2uM, 72h; a lower Z score goes with more inhibition
# Type: functional, Erythrocyte
# Details: timepoint 72 hour
Structure (SMILES),% Inhibition,Z score
CCS(=O)(=O)Nc1cccc(C)c1C#N,-16%,2.31
Cn1cncc1C(=O)N1CC2(C)CN(Cc3ccccc3)CC2(C)C1 (stereo not drawn),-1%,0.29
O=C1O[C@H](N2CCc3ccccc3C2)c2ccccc21,37%,-4.16
O=C(N[C@H]1C[C@H](C(=O)O)C1)[C@@H]1CCc2cc(F)ccc21,-10%,1.93
COCc1cn([C@@H]2CC[C@H]3CCOc4ccccc4C(=O)N4CCN(C5CCOCC5)C[C@H]4C(=O)NC[C@H]2O3)nn1,7%,-0.91
COc1ccc(-c2nc(CN3[C@@H]4CC[C@H]3CNC(=O)C4)c(C)o2)c2ccccc12,-2%,0.3
CCN1C(=O)C2C3CC4C(OC1(C)C42)C3O (stereo not drawn),-10%,1.55
CC1CCCC(Nc2ccc3nnnn3n2)C1C (stereo not drawn),-4%,0.71
Cc1ncsc1CNC(=O)N[C@H]1C[C@@H](OC(C)C)C1,-10%,1.93
O=C1C[C@H](c2n[nH]c(=O)n2CCc2ccc(F)cc2)CN1Cc1ccccc1,-10%,1.45
CN(C)CCN1CC2(CCC1=O)CCN(C(=O)Cc1ccc(O)cc1)CC2,-4%,0.53
CC(C)CN(C)[C@@H](C)C(=O)NCc1cccs1,-6%,0.78
CCc1ccccc1-c1noc(-c2coc(S(=O)(=O)N(C)C)c2)n1,-7%,1.29
COCCNC(=O)CCc1c(-c2cccc(OC)c2)nc2ccc(-c3ccccc3)cn12,-11%,0.98
O=C1CCCN1CCCN(Cc1cc2cc3c(cc2nc1N1CCC(O)CC1)OCO3)C(=O)CC1CCCC1,-4%,0.56
CS(=O)(=O)N(CC(=O)Nc1ccc(S(=O)(=O)Nc2ccc(Cl)cc2)cc1)c1cccc(C(F)(F)F)c1,33%,-3.78
Cc1noc(C)c1CN1CCc2c(cccc2N2CCOC2=O)C1,1%,-0.06
Nc1nc(NCc2ccc(F)c(Cl)c2)cc(-n2cccn2)n1,-3%,0.48
CCOC(=O)N1CCN(C(=O)C[C@]2(c3cccc(C(F)(F)F)c3)CC(=O)N(C3CC3)C2=O)CC1,18%,-2.36
CN1N=C(C(=O)NCC[C@H]2CCCO2)CCC1=O,-1%,0.14
Cn1cc(C#N)cc1C(=O)N[C@H]1CCOC[C@@H]1Oc1ccccn1,3%,-0.51

Structure (SMILES),% Inhibition,Z score
CCN(C1CCN(Cc2cn(C)nc2-c2ccncc2)CC1)S(C)(=O)=O,-8%,0.8
CCOC(C)(C)CS(=O)(=O)N(C)[C@H]1CCCc2nc(C)sc21,-9%,1.1
COc1ccc(C(=O)N2CCCN(C[C@H]3CN(C(=O)Nc4ccccc4)CCO3)CC2)cc1OC,0%,-0.03
Cc1cc(C)cc(C2(CNC(=O)N3C[C@@H]4CC[C@H](C3)C(=O)N4)CCCC2)c1,-11%,1.28
COc1ccccc1-c1nnc([C@H]2CCN(Cc3ccc(C(F)(F)F)cc3)C2)o1,-1%,0.19
Cc1nc(CN(C)C(=O)NCc2ccc3c(c2)OCO3)no1,-2%,0.2
CN(Cc1cc(F)c(F)c(F)c1)c1ncccn1,-10%,1.48
CN(Cc1cccn1Cc1cccs1)C[C@H]1CCOC1,-7%,0.96
O=C1NCCOCCCN(C(=O)COc2ccccc2)[C@H]2CCCC[C@@H]12,-6%,0.8
Cc1noc(C)c1CN1C(=O)[C@@H]2CC[C@H]1CN(c1ccc(Cl)cn1)C2,-9%,1.84
CC(C)C(=O)N1C[C@@H](Oc2ccccc2)C[C@@H]1C(=O)N1CCOCC1,-13%,2.55
OCCC1(CNCc2ccc(F)c(Cl)c2)CCC1,-17%,1.93
Cc1ncsc1CCCNC(=O)N1C[C@H]2CCC[C@@H](C1)N(C)C2,-10%,1.55
COC[C@H](C)NC(=O)N(Cc1ccc(C)s1)C1CCCC1,-6%,0.81
O=C1[C@@H]2CC[C@@H](C2)N1CCS(=O)(=O)c1ccccc1,14%,-1.83
C[C@H]1CC2(CCCCC2)N(C(=O)c2ccccc2)Cc2ccccc21,-12%,1.52
O=C([C@H]1CCc2[nH]cnc2C1)N1CCN(Cc2ccc3c(c2)OCO3)CC1,-3%,0.56
O=C1C[C@H](c2cccc3[nH]ccc23)c2c(n[nH]c2C2CCC2)N1,-16%,2.5
CCCO[C@H]1CCCN(C[C@H]2CC[C@H](O)CC2)C1,-13%,1.51
Cc1nc(C)c(C(=O)N(Cc2ccsc2)CC(C)C)o1,-13%,1.28
COc1ccc(S(=O)(=O)N2CC(=O)N(C3CC3)[C@](C)(C(=O)NCc3ccc(C)cc3)C2)cc1,-7%,0.85

Structure (SMILES),% Inhibition,Z score
O=C(O)C[C@H]1CCCN1C(=O)c1cccc2c1CCC2,3%,-0.54
O=C(N[C@H](CO)CC1CCCC1)c1c[nH]c(C(F)(F)F)c1,-4%,0.81
O=C(O)c1cccc(C(=O)N(Cc2ccc3c(c2)OCO3)C2CCCCC2)n1,-2%,0.28
O=S(=O)(CCc1cccc2ccccc12)NCc1cc2n(n1)CCNC2,4%,-0.52
CCCOc1ccc(-c2nc3c4c(ncn3n2)-c2ccccc2CC42CCCC2)cc1,-4%,0.61
Cc1nc(C)c(C)c(N2C[C@H]3CCC[C@@]3(CO)C2)n1,0%,-0.06
O=C(c1coc(C2CCOCC2)n1)N1CCc2cc(-c3ccccc3)ccc21,-14%,2.65
CC[C@H]1COCCN1Cc1ccc(CN(C)S(C)(=O)=O)o1,2%,-0.25
C=C(C)C(=O)Nc1ccc(Cl)c(C)c1,28%,-3.67
COc1c(C)cc([C@H](C(=O)O)N(C)CCN2CCCCC2=O)cc1C,5%,-0.66
CCOCCC(=O)NC1CC(OCC)C12CCCC2 (stereo not drawn),-8%,0.98
CN(C)c1ccnc(CNS(C)(=O)=O)n1,5%,-0.81
O=C1NC[C@@]2(CCCN(C(=O)CCc3ccc(=O)[nH]n3)C2)O1,-4%,0.38
COc1ccc(OC)c(NC(=O)c2cc(C)n(CCN(C)C)c2C)c1,-12%,2.24
O=c1n(Cc2c(F)cncc2F)nnn1C1CC1,-10%,1.84
C#CCOCCC(=O)N(C)c1ccc(Br)cc1C,-16%,3.05
O=C1CCc2cc(C(=O)N3CCC(c4ccccc4)CC3)ccc2N1,-11%,1.63
Cc1nn(C)c2nc(-c3ccccn3)nc(N3CCC(CCO)CC3)c12,-10%,1.35
NCc1ccc([C@@H](F)C(F)(F)F)cc1,-10%,1.29
O=C(c1ccc(F)cc1)N(Cc1ccc(-c2cccc(C(F)(F)F)c2)o1)[C@H]1CCS(=O)(=O)C1,-6%,0.75
CCc1ccc(C(=O)N[C@@H](C)Cn2cccn2)o1,-10%,1.45

Structure (SMILES),% Inhibition,Z score
COC1CC(NC(=O)c2cnc(C)nc2C)C12CCC2 (stereo not drawn),6%,-1.11
CC(C)c1cc(C(C)C)n(C2CCN(S(=O)(=O)c3ccccc3C#N)CC2)n1,-6%,1.12
CCC=C(C)C(=O)NCc1c(C)cc(C)[nH]c1=O,-13%,2.36
CC(=O)Nc1ccc(C[n+]2c3n(c4ccccc42)CCC3)cc1,-5%,0.75
O=C(NCCn1cnc2cc(C(=O)N3CCCC3)ccc21)Nc1ccccc1C(F)(F)F,-13%,1.62
O=C1CCCN1C[C@@H](O)CN1CCCC1c1cccs1 (stereo partly drawn),-31%,3.59
CC(=O)NCC(=O)N1CC[C@H](c2cccc(Oc3ccccc3)c2)C1,-18%,1.87
COc1ccccc1OCC(=O)N1CCCC[C@@H]1Cn1cc(C)cn1,-5%,0.92
CCCn1ccnc1[C@@H]1CC(=O)Nc2cc(O)c(OC)cc21,-5%,0.97
CO[C@H]1CN(c2cccc(F)c2)C12CCN(C(=O)CCCc1ccccc1)CC2,-7%,0.94
CCCN(CC(=O)NC(C)C)C[C@H]1CCCCO1,-9%,0.84
Cc1nc(N)n(C(=O)c2cccc3ccccc23)n1,1%,-0.17
CC[C@@]1(C)CN(C(=O)NCc2cncc(C)c2)CCO1,2%,-0.28
C[C@H]1C(=O)N(C)CCN1C(=O)c1cc(Cn2cnc3ccccc32)[nH]n1,-14%,2.61
CCCc1nc(-c2ccccc2)oc1CC(=O)N1CCN(c2ccccc2F)CC1,-1%,0.1
N#Cc1ccc(CN2CCN(C(=O)CN3CCOCC3)CC2)c(F)c1,1%,-0.11
COc1ccc(Cl)cc1NC(=O)Cn1cnc2nc(N3CCOCC3)sc2c1=O,1%,-0.14
COCC1(C(=O)N2CCC3(CC2)[C@H](O)C[C@@H]3O)CCC1,4%,-0.76
Cc1noc(C)c1CO[C@H]1CN(Cc2ccccn2)CC(=O)N(CC(C)C)C1,0%,0.02
CCOC(=O)c1ccc(N2CC(O)C2)nc1,-11%,1.41
COCc1nc(N2CCN(C(=O)NC(C)C)CC2)c2c(C)nn(-c3ccc(C)cc3)c2n1,-4%,0.57
